From PubChem BioAssay AID743262 (National Center for Advancing Translational Sciences (NCATS), 2014)
Hit rate of the full screen: of about 1,300 compounds, about 25 (2%) were called active. About 9% were inconclusive and are not listed. Calls come from the whole dose curve; as a rule, active = well fitted activation curve with a large enough effect; inconclusive = small, poorly fitted or top-dose-only effect; inactive = flat fitted curve, though single readings scatter. The list shows a part of the results.

Target: Glucagon-like peptide 1 receptor (Homo sapiens) (UniProt P43220)
Experiment: qHTS of GLP-1 Receptor Agonists: Hit Validation; for activation: % of control where 0% means no effect
Conditions: HEK293 GLP-1R, cAMP-response luciferase, 4-6 h; series mostly up to 46.1 µM; activation: at the top concentration
How it was run: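 Luminescence from a cAMP-responsive luciferase reporter was read 12 min after detection reagent at RT. Before that, HEK293 cells stably expressing GLP-1R plus reporter, seeded 12 h earlier, were exposed to compound for 4-6 hr at 37 deg C.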
Potency is the fitted concentration of half-maximal effect.

Sequence of UniProt P43220 (P43220 whole entry, looked up): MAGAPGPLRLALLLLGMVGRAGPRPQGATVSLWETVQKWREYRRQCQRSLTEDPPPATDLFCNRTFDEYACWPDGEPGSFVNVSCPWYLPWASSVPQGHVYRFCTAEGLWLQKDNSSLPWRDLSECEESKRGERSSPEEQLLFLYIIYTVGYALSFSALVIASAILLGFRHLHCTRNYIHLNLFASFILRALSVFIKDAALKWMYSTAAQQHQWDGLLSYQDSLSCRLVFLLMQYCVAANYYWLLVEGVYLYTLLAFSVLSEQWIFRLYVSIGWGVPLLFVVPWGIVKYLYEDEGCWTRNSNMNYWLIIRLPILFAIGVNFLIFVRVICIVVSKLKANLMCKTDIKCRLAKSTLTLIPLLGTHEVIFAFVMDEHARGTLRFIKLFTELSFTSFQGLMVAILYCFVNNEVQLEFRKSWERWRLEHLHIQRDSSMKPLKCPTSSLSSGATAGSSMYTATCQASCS

SMILES | activation | Potency
Fc1ccccc1Nc1nc2ccccc2n2nnnc12 | inactive: 8.47% | 
C=CCn1c(SCC(C)=O)nc2scc(-c3ccco3)c2c1=O | inactive: 11.1% | 
CC(=O)Nc1ccc(S(=O)(=O)N2CCN=C2SCc2ccc(C)cc2)cc1 | inactive: 3.56% | 
CCOC(=O)c1cnc(-n2nc(C)cc2C)nc1-n1nc(C)cc1C | inactive: 1.77% | 
Cc1nc(Cl)cc(N/N=C/c2ccc(O)cc2O)n1 | inactive: 13.5% | 
COc1ccc(C(C)(O)c2nc(-c3ccc(OC)c(OC)c3)cs2)cc1 (stereo unspecified) | inactive: 12.4% | 
N#Cc1cc2c(nc1SCc1cccnc1)CCCCC2 | inactive: 17.2% | 
COCCCNC(=S)N/N=C/c1ccc2ccccc2c1 | inactive: 2.83% | 
O=C(OCc1cc2ccccc2[nH]c1=O)C1CCCCC1 | inactive: -0.361% | 
CC(=O)Oc1ccccc1-c1nc(C)nc(N(C)C(C)=O)n1 | inactive: 4.28% | 
CCOC(=O)c1c(C)[nH]c2cc(Br)c(O)cc12 | inactive: 11.9% | 
Cc1ccc(C(=O)NCC(C)NC(=O)c2ccc(C)c([N+](=O)[O-])c2)cc1[N+](=O)[O-] (stereo unspecified) | inactive: -0.417% | 
CCOc1ccccc1NC(=O)Cn1cnc2onc(-c3ccc(F)cc3)c2c1=O | inactive: 2.73% | 
COc1ccc(/C(C)=N/NC(=O)c2ccc(CSc3cccc4cccnc34)cc2)cc1OC | inactive: 9.56% | 
Cc1cc(C)n(CCOC(=O)c2sc3ccccc3c2Cl)n1 | inactive: 5.74% | 
COc1ccc(C(C)=O)cc1Cn1nc(C)c([N+](=O)[O-])c1C | inactive: -0.438% | 
C#CCNc1nc(C(C)C)nc2c1nnn2Cc1ccccc1F | inactive: 5.93% | 
S=c1nc(C2CCCCC2)[nH]c2ccccc12 | inactive: 2.94% | 
Cc1cc(=O)oc2c3c(cc(OCC(=O)NC(C)C)c12)OC(C)(C)CC3 | inactive: 6.85% | 

SMILES | activation | Potency
CCOC(=O)c1c(C)nn(-c2ccc(NC(=O)/C=C/C(=O)O)cc2)c1C | inactive: -0.357% | 
COc1ccc(-c2cnc3c(NC=O)cc(-c4ccccc4OC)cn23)cc1OC |  | active: 8.2 µM
CCOc1ccc(-c2nnc(NC(=O)COc3ccccc3F)o2)cc1 | inactive: -1.49% | 
Cc1ccc(Sc2ncccc2C(=O)NC2CCCCCC2)cc1C | inactive: 3.52% | 
O=C(CCl)Nc1nc(-c2ccco2)c(-c2ccco2)s1 | inactive: 3.03% | 
COC(=O)c1cc(CSc2nnc(NC3CCCCC3)s2)oc1C | inactive: 2.1% | 
CCOC(=O)c1cnc2c(c(C)nn2CC)c1NC1CC1 | inactive: 13.8% | 
CC(C)Nc1nc(Cl)nc(NCCOc2ccccc2)n1 | inactive: 2.8% | 
CC(=NNC(=S)Nc1ccc(C)cc1)c1ccccn1 | inactive: 24.4% | 
c1ccc(CN2CCN(c3cnc4ccccc4n3)CC2)cc1 | inactive: 0.112% | 
CCN(CC)c1ncnc2c1cnn2Cc1ccc(C)cc1 | inactive: 17.3% | 
COC(=O)c1ccc(COC(=O)c2ccc(C)c(S(=O)(=O)N3CCCCC3)c2)cc1 | inactive: 0.484% | 
CN(C)NC(=S)NC1(C)CCS(=O)(=O)C1 (stereo unspecified) | inactive: 0.271% | 
Cc1cccc(C(=O)N2CCC[C@H]2C(=O)N2CCC[C@H]2C(=O)NCc2ccncc2)c1 | inactive: -0.462% | 
Brc1ccc(OCCCOc2cccc3cccnc23)cc1 | inactive: 2.52% | 
CCOC(=O)C1=C(COC(=O)c2ccc(OC)c(OC)c2OC)NC(=O)NC1C (stereo unspecified) | inactive: 4.56% | 
COc1ccc(-c2nc(C#N)c(NCc3ccc(C)cc3)o2)cc1OC | inactive: 26.6% | 
CCCCN(C)C(=O)c1cc2c(Cl)nc3ccccc3c2s1 | inactive: 14.4% | 
c1cn2c(Nc3ccc4c(c3)OCCO4)c(-c3ccc(N4CCOCC4)cc3)nc2cn1 | inactive: 8.37% | 

SMILES | activation | Potency
CCOCCCNC(=O)c1cc(Cl)c(NC(=O)C2=C(C)OCCS2)cc1OC | inactive: 2.8% | 
O=C1CC(/C=C/c2cccnc2)=Nc2ccccc2N1 | inactive: -0.561% | 
COCCN(CCOC)C(=O)c1cc2sc3ccccc3c2s1 | inactive: 0.303% | 
COc1cccc(C2CC(=O)Nc3cc(OC)c(OC)c(OC)c32)c1OC (stereo unspecified) | inactive: 0.189% | 
CCC(CC)C(=O)N1CCc2cc(OC)c(OC)cc2C1COc1ccc(C(=O)OC)cc1 (stereo unspecified) | inactive: 6.78% | 
COc1ccccc1OCCSc1nnnn1C1CCCCC1 | inactive: 1.55% | 
COc1cc(/C=N/NC(=O)c2ccc(CN3C(=O)c4cccc5cccc3c45)cc2)cc(OC)c1O | inactive: 13.7% | 
N#Cc1nc(-c2ccco2)oc1N1CCc2ccccc2C1 | inactive: 4.04% | 
CC1(C)C(CSc2nc3ccccc3[nH]2)C1(Cl)Cl (stereo unspecified) | inactive: 18.8% | 
C[S+](CC[C@H](N)C(=O)O)C[C@H]1O[C@@H](n2cnc3c(N)ncnc32)[C@H](O)[C@@H]1O (stereo partly specified) | inactive: 5.7% | 
C=C[C@@]1(C)CC(=O)[C@]2(O)[C@@]3(C)[C@@H](O)CCC(C)(C)[C@@H]3[C@H](OC(C)=O)[C@H](O)[C@@]2(C)O1 |  | active: 9.2 µM
CCOC(=O)c1sc(N(Cc2ccccc2)C(=O)CSc2nnc(C3CC3)n2N)nc1C | inactive: 1.05% | 
CSCCC(NS(=O)(=O)c1ccc2c(c1)oc(=O)n2C)C(=O)NCc1ccccc1 (stereo unspecified) | inactive: -0.357% | 
Cc1ccc(/C=N/Nc2nnc(Cl)c3ccccc23)cc1 | inactive: 0.523% | 
COc1ccc(OCc2cc(C(=O)N3CCCCCCC3)no2)c(Cl)c1 | inactive: 0.561% | 
CNc1nc(Cl)nc(NC(C)(C)C)n1 | inactive: 7.76% | 
COc1ccc(-c2cc(C(F)F)n3ncc(C(=O)N4CCc5ccccc5C4)c3n2)cc1 | inactive: 12.9% | 
CCCNC(=O)CSc1nc(COc2ccccc2)nc2ccccc12 | inactive: 0.346% | 
